Assay results as given in PubChem BioAssay AID1345082 (National Center for Advancing Translational Sciences (NCATS), 2018).
Where “and” joins values, the source holds several entries; their conditions need not be identical. Identical values can stand only once. The whole screen tested about 94,000 compounds, of which about 4,000 (4.3%) were called active. The shares of active, inactive and inconclusive entries below differ from those in the screen. The call rests on the fitted dose curve; in most records, active means well fitted inhibition curve with a large enough effect; inconclusive means small, poorly fitted or top-dose-only effect; inactive means no such curve, though single readings can be large or run the other way. Where the call is inconclusive, the potency comes from a doubtful curve fit.

Test: Cytotoxic Profiling in NIH 3T3 Cell Line of Diverse Libraries Using Quantitative High-Throughput Screening; further: nearly all actives have a fitted effect of over 55% in size
Details: NIH 3T3 viability, CellTiter-Glo ATP luminescence, 48-72 h; series mostly up to 96.7 µM
Summary of the method: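 Cells were seeded at 400 per well, treated with pin-transferred compound, and kept 48 or 72 hr at 37 °C before CellTiter-Glo addition and luminescence imaging of cellular ATP.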
Potency means the concentration at half of the fitted maximal effect; tags describe the fitted curve by direction and shape.

SMILES	Potency
COCCn1c(CN2CCn3nc(C#N)cc3C2)nnc1C1CC(N)C1 (stereo not given)	inactive
CCn1ccc2oc(C)c(C(=O)N3CCN(c4cccc(C)c4C)CC3)c2c1=O	inconclusive: 70.8 µM [inhibitor, single point]
O=[S+]([O-])(N[C@@H]1C[C@@H]2CO[C@H](c3ccccc3)C[C@@H]2C1)c1ccc(Cl)cc1	inconclusive: 44.7 µM [inhibitor, partial curve, poor fit]
O=C1CC2(CCN(Cc3ccsc3)CC2)Oc2ccccc21	inconclusive: 79.4 µM [inhibitor, partial curve, poor fit]
Cc1ccc(NC(=O)N2CCC3(CC2)C(=O)N(CC(=O)N2CCCC2)CN3c2ccccc2)cc1	inconclusive: 44.7 µM [inhibitor, partial curve, poor fit]
O=C(Nc1cccc(Cl)c1)c1cc2n(n1)CC(c1ccc3c(c1)OCO3)OC2 (stereo not given)	inconclusive: 44.7 µM [inhibitor, partial curve, poor fit]
COc1ccc(-c2cc(N3CCCC(NC(=O)c4ccc(N(C)C)cc4)C3)n[nH]2)cc1 (stereo not given)	inconclusive: 44.7 µM [inhibitor, partial curve, poor fit]
CCOc1ccc(-c2nc(C3CC(=O)N(c4ccc(F)c(Cl)c4)C3)no2)cc1OCC (stereo not given)	inconclusive: 28.2 µM [inhibitor, partial curve]
CCC(=O)N(C1CCOCC1)C1CCN(S(=O)(=O)c2ccc3c(c2)CCC3)CC1	inconclusive: 50.1 µM [inhibitor, partial curve, poor fit]
COCc1ccc2c(c1)c(OC(C)(C)C(=O)NCC1CCOCC1)nn2Cc1cccnc1	active: 39.8 µM
O=C(c1ccoc1)N1CC(Oc2cccc(-c3nc(-c4ccccc4)no3)c2)C1	inconclusive: 44.7 µM [inhibitor, partial curve, poor fit]
C[C@H]1[C@@H]2[C@@H](O)C([C@H](C)C(=O)NCc3cccnc3)CC[C@@]2(C)CC[C@@H]1NC(=O)c1ccc(C#N)cc1 (stereo not given in full)	inactive
COC[C@@H]1[C@H](C(=O)Nc2cc(C)ccc2OC)CCC(=O)N1C	inactive
O=C1CC(c2ccccc2)N(Cc2ccncc2)CCCN(C(=O)CC2CCCC2)CCN1 (stereo not given)	inactive
COc1ccc(Cn2c(C3CCN(C(=O)c4ccc(C#N)cc4)CC3)n[nH]c2=O)cc1	inconclusive: 70.8 µM [inhibitor, single point]
c1coc(-c2nc3ccncc3[nH]2)c1	inconclusive: 112 µM [inhibitor, partial curve] and inconclusive: 112 µM [inhibitor, partial curve, poor fit]
O=C(c1cccc(Cl)c1)N1CCn2c(nn(-c3ccc(C(F)(F)F)cc3)c2=O)C1	inconclusive: 50.1 µM [inhibitor, partial curve, poor fit]
COc1cccc(-c2ccc(C(=O)NCCN[S+](=O)([O-])c3ccccc3)cc2)c1	inconclusive: 44.7 µM [inhibitor, partial curve, poor fit]
COc1ccc(-c2noc([C@@H]3CCCN3C(=O)c3ccc(C)nc3)n2)cc1	inactive
Cc1nc(N2CCC(NC(=O)c3ccc(C)s3)CC2)cc(C(F)(F)F)n1	inactive

SMILES	Potency
O=C(NCc1cccnc1)c1nc(-c2cccc(C(F)(F)F)c2)c2cnccn12	inconclusive: 63.1 µM [inhibitor, partial curve, poor fit]
O=C(NCCc1ccccc1)c1cc(-c2ccsc2)c2nncn2n1	inconclusive: 22.4 µM [inhibitor, full curve, poor fit]
Cc1ccc(C)c(C(=O)N2CCC3(CC2)NC(=O)N(c2cccc(F)c2)N3)c1	inconclusive: 31.6 µM [inhibitor, partial curve, poor fit]
CCOc1cccc(CNC(=O)c2noc(-c3ccc4c(c3)OCO4)n2)c1	inconclusive: 56.2 µM [inhibitor, partial curve, poor fit]
Cc1cc(Cn2cc3c4c(cccc42)[C@H](CC(C)C)N[C@H](C(=O)NCCN(C)C)C3)no1	active: 22.4 µM
CCN1c2cc(C(=O)Nc3ccc(C#N)cc3)ccc2C(=O)N2CCCCCC21 (stereo not given)	inconclusive: 31.6 µM [inhibitor, full curve]
Cn1ccc(NC(=O)C2(C)CCc3cnc(NCc4ccccc4)nc32)n1 (stereo not given)	active: 20 µM
O=C(COc1ccc(Cl)cc1)N1CCN(c2cc(-c3ccccc3)[nH]n2)CC1	inconclusive: 44.7 µM [inhibitor, partial curve, poor fit]
Cc1nonc1CN(C)C(=O)CC(c1ccccc1)c1cccc(Cl)c1 (stereo not given)	inconclusive: 79.4 µM [inhibitor, single point]
CC1=NOC2(CCN(C(=O)c3ccc4c(c3)OCO4)C2)C1 (stereo not given)	inactive
COc1ccc(CN2CCCC(c3nn(-c4ccc(Cl)cc4)c(=O)[nH]3)C2)cc1 (stereo not given)	inconclusive: 50.1 µM [inhibitor, partial curve, poor fit]
O=C(Nc1cc(-c2ccccn2)nn1-c1ccccc1)c1ccc(C(F)(F)F)cc1	inconclusive: 39.8 µM [inhibitor, partial curve, poor fit]
COc1ccc(C(=O)N2CCc3nc(-c4ccccc4)nc(-c4ccc(Cl)cc4)c3C2)cc1	inconclusive: 31.6 µM [inhibitor, full curve]
COc1ccc(N2CCN(C(=O)CC3CCCCN(Cc4ccccc4)C3=O)CC2)cc1 (stereo not given)	inconclusive: 31.6 µM [inhibitor, partial curve, poor fit]
COCCCn1c(=O)c(C(=O)N2CCN(C(=O)c3ccc(C)cc3)CC2)nc2cccnc21	inactive
Cc1ccccc1N(C)C1CN(C(=O)c2ccccc2F)C1	inconclusive: 22.4 µM [inhibitor, full curve]
COc1cccc(CN2C(=O)OC3(CCN(Cc4ccc5c(c4)CCO5)CC3)C2(C)c2cccnc2)c1 (stereo not given)	inconclusive: 50.1 µM [inhibitor, single point]
CCOc1ccc(C(=O)N2CCC(Cc3nc(-c4ccc(OC)cc4)no3)CC2)cc1OCC	inconclusive: 44.7 µM [inhibitor, partial curve, poor fit]
COc1ccc(-c2[nH]nc3ncc(C(=O)N(C)c4cccnc4)nc23)c(C)c1	inconclusive: 11.2 µM [inhibitor, full curve, poor fit]
Fc1cccc(CN2CCC(N3CC(OCC4CC4)C34CCCCC4)CC2)c1 (stereo not given)	inconclusive: 35.5 µM [inhibitor, partial curve]

SMILES	Potency
O=C(NC1CCCN(c2ccnc3ccnn23)C1)c1cccc(Br)c1 (stereo not given)	inconclusive: 56.2 µM [inhibitor, partial curve, poor fit]
Cc1cnc(C(=O)N2CCCC(c3nc(C4CCOCC4)no3)C2)cn1 (stereo not given)	inactive
COc1ccc(CCN2CCC(CN(C)Cc3nc(C(C)C)cs3)CC2)cc1	inconclusive: 44.7 µM [inhibitor, partial curve, poor fit]
CC(C)CC(C)NC(=O)c1noc(-c2ccc[nH]c2=O)n1 (stereo not given)	inactive
O=C(Nc1ccccc1)N1CCC(C(=O)N2CCC(N3CCOCC3=O)CC2)CC1	inactive
CCCn1cc2c3c(cccc31)CN(C(=O)c1ccccc1OC)CC2	inconclusive: 50.1 µM [inhibitor, partial curve, poor fit]
Cc1ccc(C(=O)N2CCCN(S(=O)(=O)c3ccccc3)CCC(=O)NCC2)s1	inconclusive: 70.8 µM [inhibitor, single point]
COc1ccc(-c2c(C(=O)NCc3ccc(F)cc3)nc3sccn23)cc1	inconclusive: 44.7 µM [inhibitor, partial curve, poor fit]
COCCCNc1ncnc2c1CN(c1cccc(C)c1)C(=O)CN2C	inactive
Cc1noc(C)c1Cn1cc2c3c(cccc31)[C@H](CC(C)C)N[C@H](C(=O)NCC1CC1)C2	inconclusive: 112 µM [inhibitor, single point]
CNC(=O)[C@H]1C[C@H](Oc2ccccc2)CN1C(=O)NCc1ccc(F)cc1	inconclusive: 70.8 µM [inhibitor, single point]
CC(=O)N1CCCN(c2ccc3nnc(-c4ccccc4)n3n2)CC1	inconclusive: 50.1 µM [inhibitor, partial curve, poor fit]
Cc1oc2ccn(Cc3ccccc3F)c(=O)c2c1C(=O)NCc1cc(F)cc(F)c1	inconclusive: 50.1 µM [inhibitor, partial curve, poor fit]
COc1cccc(N2C(=O)NC(=NC3CCCCC3)C23CCN([S+](=O)([O-])c2cccc(C(F)(F)F)c2)C3)c1 (stereo not given)	inactive and inconclusive: 56.2 µM [inhibitor, partial curve, poor fit]
COCCOC1CCN(C(=O)c2ccc(Cc3c(C)noc3C)o2)CC1	inactive
COCCNC(=O)c1cc(-c2ccccc2Oc2ccccc2)cc2ncn(C)c12	inconclusive: 100 µM [inhibitor, partial curve]
O=S(=O)(N1CCOCC1)N1CCCC(c2ccccc2)(c2ccccc2)C1	inactive
Cc1cnc(CCNC(=O)Cn2c(=O)oc3ccccc32)n1C1CC1	inactive
CN1CCOc2c(C(=O)NCCc3cnc[nH]3)cc(-c3ccc(N4CCOCC4)cc3)cc21	inconclusive: 50.1 µM [inhibitor, single point]
CC(C)c1nc2c(c(-c3ccc(Cl)cc3)n1)CCN(Cc1ccc(F)cc1)CC2	inconclusive: 70.8 µM [inhibitor, single point]
